The target in test [1] is GABAAR δ subunit, endogenous in brain (rat (endogenous in brain)) (UniProt P18506). Description: co-IP; adult rat brain extracts (50 mM TRIS-HCl, 200 mM NaCl, 1 mM EDTA, 1% NP40, 1% Triton X-100, pH 7.4); antibody (anti-Shrm4 or anti-GABAAR δ) at 4 °C overnight, protein A-agarose, western blot.
In test [2] the target is T1, Shrm4, endogenous in rat brain (rat (endogenous in brain)) (UniProt F1LVL5).
T1 sequence: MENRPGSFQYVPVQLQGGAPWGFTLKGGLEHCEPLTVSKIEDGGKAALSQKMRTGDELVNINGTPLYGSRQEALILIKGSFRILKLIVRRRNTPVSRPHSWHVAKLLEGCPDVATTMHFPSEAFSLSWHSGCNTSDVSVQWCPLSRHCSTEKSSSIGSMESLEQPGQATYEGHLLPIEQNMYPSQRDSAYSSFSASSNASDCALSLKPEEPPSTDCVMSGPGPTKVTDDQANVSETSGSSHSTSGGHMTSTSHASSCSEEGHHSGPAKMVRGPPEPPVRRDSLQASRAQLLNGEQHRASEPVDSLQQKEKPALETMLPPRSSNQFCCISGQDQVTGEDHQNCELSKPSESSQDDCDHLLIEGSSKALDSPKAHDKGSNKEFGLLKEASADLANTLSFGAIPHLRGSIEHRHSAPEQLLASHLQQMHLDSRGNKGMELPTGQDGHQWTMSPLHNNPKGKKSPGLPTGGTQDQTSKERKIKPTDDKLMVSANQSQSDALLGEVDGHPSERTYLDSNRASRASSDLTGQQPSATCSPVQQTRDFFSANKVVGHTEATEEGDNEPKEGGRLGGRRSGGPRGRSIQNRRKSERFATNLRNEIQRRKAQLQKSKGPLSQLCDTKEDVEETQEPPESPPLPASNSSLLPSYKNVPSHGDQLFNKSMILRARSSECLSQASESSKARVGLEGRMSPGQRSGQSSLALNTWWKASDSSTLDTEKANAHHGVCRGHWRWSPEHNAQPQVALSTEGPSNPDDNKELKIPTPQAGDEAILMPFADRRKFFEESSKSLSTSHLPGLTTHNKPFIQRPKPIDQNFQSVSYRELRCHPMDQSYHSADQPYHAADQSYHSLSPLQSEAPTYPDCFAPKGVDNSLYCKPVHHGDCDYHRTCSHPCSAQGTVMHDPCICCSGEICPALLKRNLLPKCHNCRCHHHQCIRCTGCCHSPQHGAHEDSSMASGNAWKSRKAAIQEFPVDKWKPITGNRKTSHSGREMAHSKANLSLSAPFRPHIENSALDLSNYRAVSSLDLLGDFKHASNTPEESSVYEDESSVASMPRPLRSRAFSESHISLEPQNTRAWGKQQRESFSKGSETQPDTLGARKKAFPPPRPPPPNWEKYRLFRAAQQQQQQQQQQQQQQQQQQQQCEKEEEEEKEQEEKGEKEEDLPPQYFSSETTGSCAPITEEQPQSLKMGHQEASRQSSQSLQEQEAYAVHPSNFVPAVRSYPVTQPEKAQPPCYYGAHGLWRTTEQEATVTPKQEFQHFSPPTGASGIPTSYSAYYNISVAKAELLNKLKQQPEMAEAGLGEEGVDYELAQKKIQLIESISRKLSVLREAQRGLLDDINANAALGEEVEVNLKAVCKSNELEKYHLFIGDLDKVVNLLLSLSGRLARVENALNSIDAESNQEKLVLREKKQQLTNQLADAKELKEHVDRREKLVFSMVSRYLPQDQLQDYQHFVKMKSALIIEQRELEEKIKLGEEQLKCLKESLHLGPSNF
The description is as above.

Sequences of proteins named here, by UniProt entry; tags and fusion partners are left off. A change or cut given only in a name is not applied to a line headed by its entry. Residues count along the entry.
UniProt P18508, residues 39-466: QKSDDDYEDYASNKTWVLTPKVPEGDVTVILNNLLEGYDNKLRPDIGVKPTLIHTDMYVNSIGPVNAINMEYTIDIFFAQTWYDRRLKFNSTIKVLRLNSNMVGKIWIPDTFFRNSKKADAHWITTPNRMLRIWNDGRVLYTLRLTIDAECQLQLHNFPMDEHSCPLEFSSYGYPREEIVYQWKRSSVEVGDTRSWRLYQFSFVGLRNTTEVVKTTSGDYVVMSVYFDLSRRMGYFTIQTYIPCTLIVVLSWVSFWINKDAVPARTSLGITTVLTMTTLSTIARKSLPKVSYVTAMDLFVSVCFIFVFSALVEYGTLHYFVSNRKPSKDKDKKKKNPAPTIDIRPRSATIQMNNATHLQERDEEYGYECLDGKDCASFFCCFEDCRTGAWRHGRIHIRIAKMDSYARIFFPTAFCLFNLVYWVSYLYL
UniProt Q9Z0U4, residues 20-960: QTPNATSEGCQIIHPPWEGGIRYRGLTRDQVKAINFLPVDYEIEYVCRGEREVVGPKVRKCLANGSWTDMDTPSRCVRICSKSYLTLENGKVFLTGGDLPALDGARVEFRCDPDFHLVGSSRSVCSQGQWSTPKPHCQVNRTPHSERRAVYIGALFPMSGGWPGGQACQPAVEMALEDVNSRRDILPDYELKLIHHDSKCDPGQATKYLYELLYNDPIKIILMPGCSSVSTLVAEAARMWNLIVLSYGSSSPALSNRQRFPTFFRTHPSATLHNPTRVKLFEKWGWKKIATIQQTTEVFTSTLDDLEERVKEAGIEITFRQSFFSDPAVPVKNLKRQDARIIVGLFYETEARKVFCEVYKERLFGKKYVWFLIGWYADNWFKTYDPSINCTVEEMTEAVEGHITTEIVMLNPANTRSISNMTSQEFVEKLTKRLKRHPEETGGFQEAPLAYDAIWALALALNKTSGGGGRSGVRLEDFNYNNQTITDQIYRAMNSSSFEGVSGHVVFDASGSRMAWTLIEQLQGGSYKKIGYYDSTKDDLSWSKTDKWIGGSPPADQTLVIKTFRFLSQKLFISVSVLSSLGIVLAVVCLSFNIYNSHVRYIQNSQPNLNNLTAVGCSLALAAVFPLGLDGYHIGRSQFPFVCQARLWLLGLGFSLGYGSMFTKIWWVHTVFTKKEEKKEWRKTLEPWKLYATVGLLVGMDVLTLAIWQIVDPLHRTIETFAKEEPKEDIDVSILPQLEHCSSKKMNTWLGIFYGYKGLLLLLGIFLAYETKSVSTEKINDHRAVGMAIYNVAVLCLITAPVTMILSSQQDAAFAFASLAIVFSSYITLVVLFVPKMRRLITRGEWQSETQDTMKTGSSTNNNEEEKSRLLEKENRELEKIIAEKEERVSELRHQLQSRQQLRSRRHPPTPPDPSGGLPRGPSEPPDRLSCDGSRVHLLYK
UniProt Q9UBS5: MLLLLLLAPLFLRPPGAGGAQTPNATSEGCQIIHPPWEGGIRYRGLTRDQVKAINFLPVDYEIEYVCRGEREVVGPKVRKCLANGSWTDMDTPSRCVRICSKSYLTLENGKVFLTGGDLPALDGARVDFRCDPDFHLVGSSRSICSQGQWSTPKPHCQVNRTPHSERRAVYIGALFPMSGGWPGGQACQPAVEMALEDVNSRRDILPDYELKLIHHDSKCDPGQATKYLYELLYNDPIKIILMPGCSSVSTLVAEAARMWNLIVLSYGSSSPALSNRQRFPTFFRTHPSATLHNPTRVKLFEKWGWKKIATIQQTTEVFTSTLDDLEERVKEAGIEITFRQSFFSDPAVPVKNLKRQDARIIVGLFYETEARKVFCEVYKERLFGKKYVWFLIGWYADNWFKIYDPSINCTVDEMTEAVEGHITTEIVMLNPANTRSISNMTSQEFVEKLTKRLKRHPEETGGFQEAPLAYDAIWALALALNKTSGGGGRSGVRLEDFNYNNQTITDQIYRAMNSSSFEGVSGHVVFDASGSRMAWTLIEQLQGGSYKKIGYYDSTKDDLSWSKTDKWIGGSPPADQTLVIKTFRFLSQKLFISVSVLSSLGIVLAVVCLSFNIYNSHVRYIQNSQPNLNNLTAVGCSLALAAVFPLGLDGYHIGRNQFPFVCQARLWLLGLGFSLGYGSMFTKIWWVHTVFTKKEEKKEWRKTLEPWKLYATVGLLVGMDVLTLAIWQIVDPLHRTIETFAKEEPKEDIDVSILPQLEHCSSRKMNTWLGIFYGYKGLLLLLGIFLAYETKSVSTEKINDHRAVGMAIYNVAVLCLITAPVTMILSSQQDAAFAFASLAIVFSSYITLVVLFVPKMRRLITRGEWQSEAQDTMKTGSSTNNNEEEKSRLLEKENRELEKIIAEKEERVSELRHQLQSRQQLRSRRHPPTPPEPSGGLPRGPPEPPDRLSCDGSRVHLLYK

Test [3] deals with T2, GST-PDZ (Shrm4-PDZ domain, aa 1–91) (human, UniProt Q9ULL8 1-91).
T2 construct: Shrm4 (Shroom4), encoded by KIAA1202, PDZ domain, aa 1-91; in pGEX-4T-1, which should put GST at the N-terminus; source: E. coli BL21, purified using standard procedures
T2 sequence (looked up): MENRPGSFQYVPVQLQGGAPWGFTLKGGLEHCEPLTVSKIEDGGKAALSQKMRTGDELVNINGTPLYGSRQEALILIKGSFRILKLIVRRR
Description: pull-down; GST fusion proteins of the Shrm4-PDZ domain on extracts of 18DIV rat cultured hippocampal neurons or rat brain; western blot; only the target purified. (A western blot detects proteins with antibodies after separation by electrophoresis.)

The target of test [4] is T3, mutant GST-PDZ (AA) (Shrm4-PDZ domain K26G27/AA) (human) (UniProt Q9ULL8).
T3 sequence: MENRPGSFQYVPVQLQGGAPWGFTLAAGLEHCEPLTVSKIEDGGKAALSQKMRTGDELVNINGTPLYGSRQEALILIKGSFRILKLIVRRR
The test is described as above.

A further test has as its target T4, GFP-Shrm4 (human) (UniProt Q9ULL8).
T4 sequence: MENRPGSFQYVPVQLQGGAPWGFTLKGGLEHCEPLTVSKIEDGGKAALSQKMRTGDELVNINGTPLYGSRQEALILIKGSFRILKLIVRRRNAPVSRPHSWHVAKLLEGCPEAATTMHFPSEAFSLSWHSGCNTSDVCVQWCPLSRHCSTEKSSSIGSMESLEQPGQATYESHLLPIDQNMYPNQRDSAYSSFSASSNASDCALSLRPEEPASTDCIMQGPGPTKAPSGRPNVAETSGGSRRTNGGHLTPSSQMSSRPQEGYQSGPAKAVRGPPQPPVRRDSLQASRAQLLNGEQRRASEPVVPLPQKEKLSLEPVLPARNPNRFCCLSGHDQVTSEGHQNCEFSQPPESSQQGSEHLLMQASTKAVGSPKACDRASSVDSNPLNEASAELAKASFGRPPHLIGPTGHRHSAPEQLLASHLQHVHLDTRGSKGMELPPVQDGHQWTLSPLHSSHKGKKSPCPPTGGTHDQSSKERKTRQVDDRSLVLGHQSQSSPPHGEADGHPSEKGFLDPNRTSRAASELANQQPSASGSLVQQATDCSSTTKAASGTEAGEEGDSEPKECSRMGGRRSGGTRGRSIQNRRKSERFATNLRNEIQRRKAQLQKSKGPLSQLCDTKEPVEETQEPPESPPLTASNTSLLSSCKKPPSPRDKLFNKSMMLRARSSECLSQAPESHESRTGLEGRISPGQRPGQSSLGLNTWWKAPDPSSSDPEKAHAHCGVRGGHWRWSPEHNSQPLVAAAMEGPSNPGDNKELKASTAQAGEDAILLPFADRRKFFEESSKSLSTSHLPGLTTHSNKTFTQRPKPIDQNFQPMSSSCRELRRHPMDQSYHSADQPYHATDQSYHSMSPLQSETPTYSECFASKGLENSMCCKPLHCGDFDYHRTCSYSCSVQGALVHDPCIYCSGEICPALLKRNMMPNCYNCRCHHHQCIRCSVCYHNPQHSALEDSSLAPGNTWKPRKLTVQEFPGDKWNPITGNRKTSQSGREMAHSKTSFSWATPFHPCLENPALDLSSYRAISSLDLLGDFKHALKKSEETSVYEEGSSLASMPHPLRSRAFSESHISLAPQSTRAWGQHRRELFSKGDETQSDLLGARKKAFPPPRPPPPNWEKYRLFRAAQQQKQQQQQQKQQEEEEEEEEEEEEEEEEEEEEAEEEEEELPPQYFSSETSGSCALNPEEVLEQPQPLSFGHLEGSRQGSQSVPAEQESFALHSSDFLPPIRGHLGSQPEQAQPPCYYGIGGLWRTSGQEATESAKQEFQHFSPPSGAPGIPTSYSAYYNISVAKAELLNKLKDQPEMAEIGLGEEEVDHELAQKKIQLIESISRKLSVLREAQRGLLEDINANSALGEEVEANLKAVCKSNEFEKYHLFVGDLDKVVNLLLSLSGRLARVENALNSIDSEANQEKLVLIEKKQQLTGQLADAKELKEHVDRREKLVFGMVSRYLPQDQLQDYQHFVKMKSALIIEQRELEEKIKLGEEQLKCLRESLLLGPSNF
Briefly: co-IP; lysates of transfected HEK293 cells; antibody to the tag of Shrm4 (HA, GFP, V5) at 4 °C overnight, protein A-agarose, western blot.

In article PMC5343488, “Epilepsy and intellectual disability linked protein Shrm4 interaction with GABABRs shapes inhibitory neurotransmission” (Nature Communications, 2017) one finds binding data, which are given here for 5 substances.

Results are given in words; binding and its absence hold for the method and conditions named. Binding seen in cells or lysates may run through a third protein. Some results given as binding are weak or reduced against the parent protein; the word gives no strength. For some of these results: Where a sequence is shown, tags or fusion partners need not be part of it.

On to “GABAAR γ2 subunit, endogenous in brain (from UniProt P18508 39-466) (receptor)”, for which, in test [1], the binding entry was “no binding”.

As for “GABAB1 (GABABR), endogenous in rat brain, isoform not told (from UniProt Q9Z0U4 20-960) (receptor)”, in test [1], the binding entry is given as “binds”. Regarding “GABAB1a, endogenous in rat brain and cultured hippocampal neurons (from UniProt Q9Z0U4 20-960) (receptor)”, the binding entry is given as “binds” in test [2], “binds” in test [3] and “no binding” in test [4]. Consider “GABAB1a-Δ859–961 (from UniProt Q9UBS5 20-858) (domain or fragment)”, for which the binding entry with GFP-Shrm4 (human) is on record as “no binding”. As for “GABAB1a-Δ870–961 (from UniProt Q9UBS5 20-869) (domain or fragment)”, the binding result with GFP-Shrm4 (human) is “binds”.
